In all, about 260,000 compounds went through this assay and about 890 (0.34%) were called active. This list was built around the results that the source calls inconclusive (neither active nor inactive); the mix of calls is not that of the screen. Calls follow the shape of the dose curve; as a rule, active = well fitted activation curve with a large enough effect; inconclusive = small, poorly fitted or top-dose-only effect; inactive = no such curve, though single readings can be large or run the other way. Potencies of inconclusive entries are left out as doubtful fits.
biological target: Pyruvate kinase PKM (Homo sapiens) (UniProt P14618); experiment: qHTS Assay for Activators of Human Muscle isoform 2 Pyruvate Kinase; conditions: purified PKM2, Kinase-Glo ATP luminescence; Potency: activation; activation: at 57.5 µM (top of the series), 0% is enzyme alone, no compound; also: nearly all actives have a fitted effect of over 55% in size
Summary of the method: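 Purified hPK-M2 (>95% pure) converted ADP (0.1 mM final) to ATP with 0.5 mM PEP in 50 mM imidazole pH7.2, KCl, MgCl2, Tween 20, BSA; 1 h at room temperature. ATP detected by Kinase-Glo luminescence.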
% is scaled to controls: 0 for no effect and ±100 for the full control effect; potency is read from the fitted curve at half-maximal effect; tags tell the direction and shape of the fitted curve.

Sequence of UniProt P14618 (P14618 whole entry, looked up, canonical isoform): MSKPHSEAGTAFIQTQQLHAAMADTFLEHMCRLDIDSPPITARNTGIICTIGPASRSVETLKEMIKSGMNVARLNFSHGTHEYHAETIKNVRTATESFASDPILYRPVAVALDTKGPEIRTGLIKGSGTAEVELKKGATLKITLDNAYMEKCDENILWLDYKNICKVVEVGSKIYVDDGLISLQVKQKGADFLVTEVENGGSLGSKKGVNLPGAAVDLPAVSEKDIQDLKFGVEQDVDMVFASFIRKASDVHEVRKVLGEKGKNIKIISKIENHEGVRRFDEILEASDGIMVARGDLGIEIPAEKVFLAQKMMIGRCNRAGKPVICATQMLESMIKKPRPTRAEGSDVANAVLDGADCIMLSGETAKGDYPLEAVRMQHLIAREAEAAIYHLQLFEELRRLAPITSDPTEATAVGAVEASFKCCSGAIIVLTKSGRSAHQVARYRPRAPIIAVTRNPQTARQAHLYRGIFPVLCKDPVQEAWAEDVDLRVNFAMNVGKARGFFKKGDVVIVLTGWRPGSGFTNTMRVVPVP

Compound | activation | Potency
O=C(Cn1cccc1C(=O)c1ccccc1)NCc1cccc(Cl)c1 | inactive: -1.38% | 
Cc1cc(-c2nnc(SCc3ccccn3)o2)no1 |  | inconclusive [rising, partial curve, poor fit]
COc1ccc(C2=NS(=O)(=O)N(C)C(C(=O)NC(C)c3ccccc3)=C2)cc1OC (stereo unspecified) |  | inconclusive [rising, single point]
O=C(NCc1ccc(/C=c2\sc3n(c2=O)CCN=3)o1)C(=O)Nc1ccccc1 |  | active: 20 µM
COC(=O)c1cnc(SCc2ccc(Cl)cc2)n1C | inactive: 4.84% | 
O=C(NCc1cc(F)cc2c1OCCO2)[C@H]1C[C@@H]1[C@H](NP(=O)(c1ccccc1)c1ccccc1)c1ccccc1 | inactive: 0.0315% | 
NS(=O)(=O)c1cc2c(cc1Cl)NC(C1C[C@H]3C=C[C@@H]1C3)NS2(=O)=O (stereo partly specified) |  | inconclusive [rising, single point]
O=C(CSc1ccc(Br)cc1)N1CCN(S(=O)(=O)c2ccccc2)CC1 |  | inconclusive [rising, partial curve]
O=C(Nc1nc2c(s1)CN(Cc1ccccc1)CC2)C1CCC1 | inactive: -2.12% | 
O=C(Cn1c(NCCO)nc2ccccc21)NCCc1ccccc1 |  | inconclusive [rising, single point]
Cc1cc(=O)oc2cc(OCC(=O)N3c4ccccc4CC3C)ccc12 (stereo unspecified) | inactive: -5.93% | 
CC(C)OC(=O)c1cn(-c2ccccc2)nc1-c1ccco1 |  | inconclusive [rising, single point]
Cc1cccc(OCCOC(=O)C2CCN(S(=O)(=O)c3ccc(C)c(C)c3)CC2)c1 |  | inconclusive [rising, full curve]
CCCC(=O)Nc1ccc(Cl)c(NC(=O)c2cccc(OC)c2)c1 |  | inconclusive [rising, single point]
CCCNc1nc2c(c(=O)n(C)c(=O)n2C)n1Cc1ccc(F)cc1 | inactive: 2.13% | 
O=S(=O)(Nc1ccccc1N1CCCCC1)c1ccc(F)cc1 |  | inconclusive [rising, single point]
CCC(=O)OCCNc1cc(Sc2nccn2C)c2nonc2c1[N+](=O)[O-] |  | inconclusive [rising, partial curve]
CCN(CC)c1ccc(/C=N/N2CCN(Cc3ccccc3Cl)CC2)c(O)c1 |  | inconclusive [rising, partial curve]
CCOC(=O)N1CCN(C(=O)c2nn(-c3cc(OC)cc(OC)c3)c(=O)c3ccccc23)CC1 | inactive: 12.6% | 
Cc1ccc(-c2csc(N3CCN(CCCn4c(C(F)(F)F)nc5ccccc54)CC3)n2)cc1 |  | inconclusive [rising, single point]
S=C(c1ccc(-c2cc(Cl)ccc2Cl)o1)N1CCOCC1 |  | inconclusive [rising, single point]
CCNc1nc(SC(C)C(=O)Nc2ccccc2)nc(N(C)C)n1 (stereo unspecified) |  | inconclusive [rising, partial curve]
Fc1ccc(-n2ncc3c(SCc4cccnc4)ncnc32)cc1 |  | inconclusive [rising, partial curve]

Compound | activation | Potency
CCOC(=O)COc1cc(N2C(=O)CSCC2=O)c(Cl)cc1Cl |  | inconclusive [rising, partial curve]
CCC(Oc1ccccc1)C(=O)Nc1ncc([N+](=O)[O-])s1 (stereo unspecified) | inactive: 4.35% | 
COc1ccc(-c2cn3ccccc3n2)cc1OC | inactive: -78.8% | 
Cc1nnc2sc(SCc3cccc(Cl)c3)nn2c1=O |  | inconclusive [rising, full curve]
Cc1c(C(=O)N/N=C/c2ccc(-c3ccccc3[N+](=O)[O-])o2)sc(N)c1C#N |  | inconclusive [rising, single point]
Cc1nn(S(=O)(=O)c2cccs2)c(C)c1Sc1ccccc1 |  | active: 15.8 µM
COc1ccc(S(=O)(=O)NCc2c(-c3ccccc3)noc2C)c(OC)c1 |  | active: 28.2 µM
O=C(O)C[C@@H]1C(=O)O[C@@H]2C(COC(=O)c3cc(O)c(O)c(O)c3)O[C@@H](OC(=O)c3cc(O)c(O)c(O)c3)[C@@H](OC(=O)c3cc(O)c(O)c4c3[C@H]1[C@H](O)C(=O)O4)[C@H]2OC(=O)c1cc(O)c(O)c(O)c1 (stereo partly specified) |  | inconclusive [rising, full curve]
COc1ccccc1NC(=S)NCCc1ccccc1 | inactive: -15.3% | 
Cc1ccc(C2CC(c3ccc(NS(C)(=O)=O)cc3)=NN2C(=O)c2ccco2)cc1 (stereo unspecified) |  | inconclusive [rising, partial curve]
Cc1ccc(NC(=S)NC2CCSc3ccccc32)cc1 (stereo unspecified) | inactive: -0.41% | 
COCCNC(=O)c1c[nH]c2ccc(S(=O)(=O)N3CCc4ccccc43)cc2c1=O |  | inconclusive [rising, partial curve]
O=C(Cc1cccs1)N1CCN(S(=O)(=O)c2ccc(Br)cc2)CC1 |  | active: 3.16 µM
Cc1ccc(/C=C/C(=O)Nc2nc3ccccc3[nH]2)cc1 | inactive: -5.66% | 
Cc1cc(C=O)c(C)n1-c1ccc(Cl)c(C(=O)O)c1 |  | inconclusive [rising, single point]
COc1ccc(C(=O)NC(=S)N2CCCc3ccccc32)cc1OC | inactive: -4.62% | 
Nc1nnc(-c2cn(-c3ccccc3)nc2-c2ccc(Cl)cc2)o1 | inactive: 4.54% | 
Cc1nc2c(c(=O)n1Cc1ccccc1Cl)c1nc3ccccc3nc1n2Cc1ccco1 |  | inconclusive [rising, single point]
O=C(CN1CCCCC1)Nc1ccc(Br)cc1[N+](=O)[O-] |  | inconclusive [rising, single point]
CC1CN(S(=O)(=O)c2cccs2)CC(C)O1 (stereo unspecified) |  | inconclusive [rising, partial curve]
Cc1ccc(S(=O)(=O)NC2CCCCCC2)cc1C(N)=O | inactive: 6.43% | 
CC(=O)Nc1ccc(NS(=O)(=O)c2ccc3[nH]c(=O)[nH]c3c2)cc1 |  | inconclusive [rising, single point]
NS(=O)(=O)c1ccc(-c2ccc(/C=C3\C(=O)Nc4cc(Cl)ccc43)o2)cc1 |  | inconclusive [rising, partial curve]

Reference: PubChem BioAssay AID1631 (National Center for Advancing Translational Sciences (NCATS), 2009)
